Assay results from the supplement of paper PMC4967469.
Lines with a small IC50 respond at low doses; a limit (>, <) means that the fit lies beyond the doses tested. The AUC spans the tested range (256-fold, ending at the top dose) of the same fit; it is 1 without any effect and falls as sensitivity rises. For some of these results: A top dose marked as inferred was derived from the fitted curves, not read from the paper.

Columns and labels:
Experiment in all cases: Viability of human cancer cell lines after 72 h of drug (GDSC screen)
XAV 939 = compound: Oc1nc(-c2ccc(C(F)(F)F)cc2)nc2c1CSCC2 [XAV 939]; conditions: top dose 5 µM; top dose inferred
Description: (§1)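 Human cancer cell lines in 384-well plates, medium with 10% serum, drug for 72 h over a 256-fold dose range (nine 2-fold or five 4-fold steps up to the top dose). Adherent lines were fixed and stained with the nucleic acid dye Syto60, suspension lines read with resazurin; signal relative to control wells, capped at 0 and 100%. One two-parameter sigmoid per drug and line, fitted in a mixed model over all curves with the slope shared within a line.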

AZD7762 = compound: NC(=O)Nc1cc(-c2cccc(F)c2)sc1C(=O)N[C@H]1CCCNC1 [AZD7762]; conditions: top dose 2 µM
Description: as §1

BMS-345541 = compound: Cc1ccc2nc(NCCN)c3ncc(C)n3c2c1 [BMS-345541]; conditions: top dose 16 µM
Description: as §1

YK 4-279 = compound: COc1ccc(C(=O)CC2(O)C(=O)Nc3c(Cl)ccc(Cl)c32)cc1 [YK 4-279]; conditions: top dose 10 µM
Description: as §1

NPK76-II-72-1 = compound: COc1cc(C(=O)NC2CCN(C)CC2)ccc1Nc1ncc2c(n1)N(C1CCCC1)C(C)CC(=O)N2C [NPK76-II-72-1]; conditions: top dose 10.24 µM; top dose inferred
Description: as §1

Etoposide = compound: COc1cc([C@@H]2c3cc4c(cc3[C@@H](O[C@@H]3O[C@@H]5CO[C@@H](C)O[C@H]5[C@H](O)[C@H]3O)[C@H]3COC(=O)[C@H]23)OCO4)cc(OC)c1O [Etoposide]; conditions: top dose 16 µM
Description: as §1

Bexarotene = compound: C=C(c1ccc(C(=O)O)cc1)c1cc2c(cc1C)C(C)(C)CCC2(C)C [Bexarotene]; conditions: top dose 8 µM
Description: as §1

GSK-650394 = compound: O=C(O)c1ccc(-c2c[nH]c3ncc(-c4ccccc4)cc23)cc1C1CCCC1 [GSK-650394]; conditions: top dose 16 µM; top dose inferred
Description: as §1

## 8305C (thyroid, adherent)
XAV 939
  AUC: 0.979
  IC50: > 5 µM
AZD7762
  AUC: 0.73
  IC50: 0.705 µM
BMS-345541
  AUC: 0.964
  IC50: > 16 µM
YK 4-279
  AUC: 0.657
  IC50: 1.96 µM
NPK76-II-72-1
  AUC: 0.961
  IC50: > 10.2 µM
Etoposide
  AUC: 0.617
Bexarotene
  AUC: 0.976
  IC50: > 8 µM
GSK-650394
  AUC: 0.927
  IC50: > 16 µM

## 23132-87 (stomach, adherent)
XAV 939
  AUC: 0.97
  IC50: > 5 µM
AZD7762
  AUC: 0.631
  IC50: 0.291 µM
BMS-345541
  AUC: 0.919
  IC50: > 16 µM
YK 4-279
  AUC: 0.695
  IC50: 2.25 µM
NPK76-II-72-1
  AUC: 0.893
  IC50: > 10.2 µM
Etoposide
  AUC: 0.423
  IC50: 0.61 µM
Bexarotene
  AUC: 0.97
  IC50: > 8 µM
GSK-650394
  AUC: 0.788
  IC50: 7.3 µM

## A3-KAW (B-cell lymphoma, suspension)
XAV 939
  AUC: 0.989
  IC50: > 5 µM
AZD7762
  AUC: 0.628
  IC50: 0.26 µM
BMS-345541
  AUC: 0.647
  IC50: 2.33 µM
YK 4-279
  AUC: 0.788
  IC50: 3.45 µM
NPK76-II-72-1
  AUC: 0.84
  IC50: 5.08 µM
Etoposide
  AUC: 0.334
  IC50: 0.384 µM
Bexarotene
  AUC: 0.98
  IC50: > 8 µM
GSK-650394
  AUC: 0.875
  IC50: 10.4 µM

## A4-Fuk (B-cell lymphoma, suspension)
XAV 939
  AUC: 0.976
  IC50: > 5 µM
AZD7762
  AUC: 0.47
  IC50: 0.103 µM
BMS-345541
  AUC: 0.871
  IC50: > 16 µM
YK 4-279
  AUC: 0.673
  IC50: 1.94 µM
NPK76-II-72-1
  AUC: 0.984
  IC50: > 10.2 µM
Etoposide
  AUC: 0.496
  IC50: 0.976 µM
Bexarotene
  AUC: 0.868
  IC50: 7.8 µM
GSK-650394
  AUC: 0.841
  IC50: 11.8 µM

## A253 (head and neck, adherent)
XAV 939
  AUC: 0.987
  IC50: > 5 µM
AZD7762
  AUC: 0.728
  IC50: 0.547 µM
BMS-345541
  AUC: 0.851
  IC50: 11.8 µM
YK 4-279
  AUC: 0.796
  IC50: 4.55 µM
NPK76-II-72-1
  AUC: 0.988
  IC50: > 10.2 µM
Etoposide
  AUC: 0.131
  IC50: 0.0712 µM
Bexarotene
  AUC: 0.92
  IC50: > 8 µM
GSK-650394
  AUC: 0.92
  IC50: > 16 µM

## A498 (kidney, adherent)
XAV 939
  AUC: 0.927
  IC50: > 5 µM
AZD7762
  AUC: 0.834
  IC50: > 2 µM
BMS-345541
  AUC: 0.928
  IC50: > 16 µM
YK 4-279
  AUC: 0.771
  IC50: 5.91 µM
NPK76-II-72-1
  AUC: 0.978
  IC50: > 10.2 µM
Etoposide
  AUC: 0.838
  IC50: > 16 µM
Bexarotene
  AUC: 0.944
  IC50: > 8 µM
GSK-650394
  AUC: 0.974
  IC50: > 16 µM

## A704 (kidney, adherent)
XAV 939
  AUC: 0.946
  IC50: > 5 µM
AZD7762
  AUC: 0.725
  IC50: 0.53 µM
BMS-345541
  AUC: 0.975
  IC50: > 16 µM
YK 4-279
  AUC: 0.821
  IC50: 5.54 µM
NPK76-II-72-1
  AUC: 0.944
  IC50: > 10.2 µM
Etoposide
  AUC: 0.984
  IC50: > 16 µM
Bexarotene
  AUC: 0.852
  IC50: 5.88 µM
GSK-650394
  AUC: 0.885
  IC50: > 16 µM

## ABC-1 (lung adenocarcinoma, adherent)
XAV 939
  AUC: 0.807
  IC50: 3.21 µM
AZD7762
  AUC: 0.602
  IC50: 0.253 µM
BMS-345541
  AUC: 0.889
  IC50: > 16 µM
YK 4-279
  AUC: 0.699
  IC50: 2.57 µM
NPK76-II-72-1
  AUC: 0.883
  IC50: > 10.2 µM
Etoposide
  AUC: 0.378
  IC50: 0.429 µM
Bexarotene
  AUC: 0.959
  IC50: > 8 µM
GSK-650394
  AUC: 0.708
  IC50: 4.39 µM

## ALL-PO (lymphoblastic leukaemia, suspension)
XAV 939
  AUC: 0.969
  IC50: > 5 µM
AZD7762
  AUC: 0.183
  IC50: 0.013 µM
BMS-345541
  AUC: 0.708
  IC50: 4 µM
YK 4-279
  AUC: 0.95
  IC50: > 10 µM
NPK76-II-72-1
  AUC: 0.458
  IC50: 0.488 µM
Etoposide
  AUC: 0.461
  IC50: 0.778 µM
Bexarotene
  AUC: 0.747
  IC50: 2.69 µM
GSK-650394
  AUC: 0.46
  IC50: 0.771 µM

## ALL-SIL (T-cell leukaemia, suspension)
XAV 939
  AUC: 0.979
  IC50: > 5 µM
AZD7762
  AUC: 0.558
  IC50: 0.176 µM
BMS-345541
  AUC: 0.522
  IC50: 1.14 µM
YK 4-279
  AUC: 0.532
  IC50: 0.752 µM
NPK76-II-72-1
  AUC: 0.427
  IC50: 0.417 µM
Etoposide
  AUC: 0.354
  IC50: 0.42 µM
Bexarotene
  AUC: 0.931
  IC50: > 8 µM
GSK-650394
  AUC: 0.551
  IC50: 1.35 µM

## AM-38 (glioma, semi-adherent)
XAV 939
  AUC: 0.982
  IC50: > 5 µM
AZD7762
  AUC: 0.873
  IC50: 2 µM
BMS-345541
  AUC: 0.876
  IC50: > 16 µM
YK 4-279
  AUC: 0.973
  IC50: > 10 µM
NPK76-II-72-1
  AUC: 0.921
  IC50: > 10.2 µM
Etoposide
  AUC: 0.72
  IC50: 4.26 µM
Bexarotene
  AUC: 0.982
  IC50: > 8 µM
GSK-650394
  AUC: 0.917
  IC50: > 16 µM

## AMO-1 (haematopoietic neoplasm, suspension)
XAV 939
  AUC: 0.982
  IC50: > 5 µM
AZD7762
  AUC: 0.736
  IC50: 0.524 µM
BMS-345541
  AUC: 0.842
  IC50: 8.95 µM
YK 4-279
  AUC: 0.565
  IC50: 0.915 µM
NPK76-II-72-1
  AUC: 0.555
  IC50: 0.881 µM
Etoposide
  AUC: 0.887
  IC50: 13.4 µM
Bexarotene
  AUC: 0.981
  IC50: > 8 µM
GSK-650394
  AUC: 0.935
  IC50: > 16 µM

## AN3-CA (endometrium, adherent)
XAV 939
  AUC: 0.978
  IC50: > 5 µM
AZD7762
  AUC: 0.777
  IC50: 0.879 µM
BMS-345541
  AUC: 0.918
  IC50: > 16 µM
YK 4-279
  AUC: 0.71
  IC50: 2.6 µM
NPK76-II-72-1
  AUC: 0.88
  IC50: > 10.2 µM
Etoposide
  AUC: 0.645
  IC50: 2.62 µM
Bexarotene
  AUC: 0.879
  IC50: > 8 µM
GSK-650394
  AUC: 0.74
  IC50: 5.22 µM

## ARH-77 (myeloma, suspension)
XAV 939
  AUC: 0.971
  IC50: > 5 µM
AZD7762
  AUC: 0.652
  IC50: 0.325 µM
BMS-345541
  AUC: 0.811
  IC50: 8.12 µM
YK 4-279
  AUC: 0.644
  IC50: 1.54 µM
NPK76-II-72-1
  AUC: 0.724
  IC50: 2.68 µM
Etoposide
  AUC: 0.643
  IC50: 2.44 µM
Bexarotene
  AUC: 0.97
  IC50: > 8 µM
GSK-650394
  AUC: 0.943
  IC50: > 16 µM

## ASH-3 (thyroid, adherent)
XAV 939
  AUC: 0.987
  IC50: > 5 µM
AZD7762
  AUC: 0.727
  IC50: 0.553 µM
BMS-345541
  AUC: 0.918
  IC50: > 16 µM
YK 4-279
  AUC: 0.545
  IC50: 0.83 µM
NPK76-II-72-1
  AUC: 0.988
  IC50: > 10.2 µM
Etoposide
  AUC: 0.561
  IC50: 1.47 µM
Bexarotene
  AUC: 0.927
  IC50: > 8 µM
GSK-650394
  AUC: 0.601
  IC50: 1.89 µM

## BB49-HNC (head and neck, adherent)
XAV 939
  AUC: 0.939
  IC50: > 5 µM
AZD7762
  AUC: 0.818
  IC50: 1.79 µM
BMS-345541
  AUC: 0.974
  IC50: > 16 µM
YK 4-279
  AUC: 0.674
  IC50: 2.35 µM
NPK76-II-72-1
  AUC: 0.978
  IC50: > 10.2 µM
Etoposide
  AUC: 0.909
  IC50: > 16 µM
Bexarotene
  AUC: 0.978
  IC50: > 8 µM
GSK-650394
  AUC: 0.911
  IC50: > 16 µM

## BB65-RCC (kidney, adherent)
XAV 939
  AUC: 0.942
  IC50: > 5 µM
AZD7762
  AUC: 0.618
  IC50: 0.278 µM
BMS-345541
  AUC: 0.908
  IC50: > 16 µM
YK 4-279
  AUC: 0.738
  IC50: 3.36 µM
NPK76-II-72-1
  AUC: 0.954
  IC50: > 10.2 µM
Etoposide
  AUC: 0.452
  IC50: 0.724 µM
Bexarotene
  AUC: 0.882
  IC50: > 8 µM
GSK-650394
  AUC: 0.89
  IC50: > 16 µM
